# Screen size: about 55,000 compounds; about 530 (0.96%) were called active. The shares of active, inactive and inconclusive entries below differ from those in the screen. The call rests on the fitted dose curve; in most records, active means well fitted cell-killing curve with a large enough effect; inconclusive means small, poorly fitted or top-dose-only effect; inactive means no such curve, though single readings can be large or run the other way. Where the call is inconclusive, the potency comes from a doubtful curve fit.
# Experiment: qHTS Screen for Compounds that Selectively Target Cancer Cells with p53 Mutations: Cytotoxicity of p53 Null Cells at the Nonpermissive Temperature; further: nearly all actives have a fitted effect of over 50% in size
# Conditions: H1299 p53-null (neo) cells, 39C, ATPlite viability, 24 h; series mostly up to 46.1 µM
# Procedure, shortened: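 Following overnight plating at 37C (600 cells/well), H1299-neo or H1299-p53A138V cells are dosed up to 46 uM. Incubation lasts 24 hr at 39C before ATP detection.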
# Potency means the concentration at half of the fitted maximal effect; tags describe the fitted curve by direction and shape.
row,Structure (SMILES),Potency
1,Cc1ccc(-c2nnc(Nc3ccc(O)cc3)c3ccccc23)cc1S(=O)(=O)NC(C)(C)CO,"inconclusive: 35.5 µM [cytotoxic, single point]"
2,COc1ccc(Nc2cc(C)c3cc(NC(=O)COc4cccc(C)c4)ccc3n2)cc1,inactive
3,COc1ccc2nc(NC(=O)c3nc(S(=O)(=O)Cc4ccc(C)cc4)ncc3Cl)sc2c1,"inconclusive: 2 µM [cytotoxic, partial curve, poor fit]"
4,COc1ccc(Cl)cc1NC(=O)COc1cccc2c(=O)n(C)ccc12,"inconclusive: 0.1 µM [cytotoxic, full curve, poor fit]"
5,CCc1ccc(-c2cc(C)no2)cc1S(=O)(=O)NCc1ccc(OC)cc1,"inconclusive: 15.8 µM [cytotoxic, partial curve, poor fit]"
6,COc1cc(C)ccc1OCCSc1nc2ccc(NC(=O)c3ccccc3F)cc2s1,"inconclusive: 3.16 µM [cytotoxic, partial curve]"
7,COc1cc(C(=O)Nc2ccc(OCc3cc(=O)n4cccc(C)c4n3)cc2)cc(OC)c1OC,"inconclusive: 25.1 µM [cytotoxic, partial curve, poor fit]"
8,COc1ccccc1CNC(=O)c1ccc2c(c1)N(Cc1ccc(C)cc1)CCS2,inactive
9,O=C(NCc1ccc(F)cc1)C(=O)NCC(c1cccs1)S(=O)(=O)c1cccs1 (stereo not drawn),"inconclusive: 0.005 µM [cytotoxic, full curve, poor fit]"
10,CN(Cc1ccccc1)c1ccc(-c2nc(-c3cccnc3)no2)cc1[N+](=O)[O-],"inconclusive: 2 µM [cytotoxic, single point]"
11,Cc1c(C(=O)OCCOc2ccccc2)[nH]c2c1C(=O)CC(c1ccccc1Cl)C2 (stereo not drawn),"inconclusive: 1 µM [cytotoxic, partial curve]"
12,Cc1ccc(NS(=O)(=O)c2ccc3[nH]c4c(c3c2)CCCCC4)cc1,"inconclusive: 22.4 µM [cytotoxic, single point]"
13,Cc1c(CNCCCc2ccccc2)c(C(=O)O)c(C)n1Cc1cccc(Cl)c1,inactive
14,Cc1cccc(-n2c(-c3ccco3)nc3c(cnn3-c3ccc(F)cc3)c2=O)c1,inactive
15,CCS(=O)(=O)NCCc1csc2nc(-c3ccc(C)cc3)nn12,inactive
16,CCOc1ccc2nc(N3CCCC(C(=O)NCc4ccc(C)cc4)C3)sc2c1 (stereo not drawn),"inconclusive: 31.6 µM [cytotoxic, partial curve, poor fit]"
17,O=C(/C=C/c1cn(CC(O)CN2CCc3ccccc32)c2ccccc12)c1ccc(Br)cc1 (stereo not drawn),inactive
18,CCC(C)NC(=O)C1CCN(S(=O)(=O)c2ccc3c(ccn3CC)c2)CC1 (stereo not drawn),"inconclusive: 0.0158 µM [cytotoxic, full curve, poor fit]"
19,COc1ccc(-c2nc(C)c(CCNC(=O)c3ccccc3Br)s2)cc1OC,inactive
20,COc1cccc(Cn2cnc3c2c(=O)n(C)c(=O)n3C)c1,"inconclusive: 31.6 µM [cytotoxic, single point]"
21,COc1cccc(-c2cc(C(=O)Nc3ccc(F)cc3)[nH]n2)c1,"inconclusive: 20 µM [cytotoxic, partial curve]"

row,Structure (SMILES),Potency
1,O=C(CCCn1c(=O)c2ccccc2n(Cc2cccc(Cl)c2)c1=O)NCCc1ccc(Cl)cc1,"inconclusive: 31.6 µM [cytotoxic, single point]"
2,Cc1cccc(-c2nc3ccccc3n2Cc2ccccc2)c1,"inconclusive: 11.2 µM [cytotoxic, partial curve]"
3,COc1ccc2c(c1)-c1nc(NC(=O)c3ccc(OC)c(Br)c3)sc1CC2,"inconclusive: 10 µM [cytotoxic, single point]"
4,Cc1nnc(N2CCC(C(=O)Nc3ccc(F)cc3)CC2)c2nn(-c3ccc(Cl)cc3)c(C)c12,"inconclusive: 12.6 µM [cytotoxic, partial curve]"
5,CCCCOC(=O)/C(C#N)=C/c1ccc(-c2cccc(C(F)(F)F)c2)o1,inactive
6,O=C(Nc1cccc(S(=O)(=O)Nc2ccc(Cl)cc2)c1)c1cc2c(s1)CCCC2,active: 2.82 µM
7,CCOc1ccc(Cn2nnc(C(=O)Nc3cccc(SC)c3)c2N)cc1,"inconclusive: 0.005 µM [cytotoxic, full curve, poor fit]"
8,Cc1cn2c(=O)cc(COC(=O)c3cccc(NC(=O)c4ccccc4Cl)c3)nc2s1,inactive
9,Cc1ccc(C)c(CN2C(=O)c3ccccc3S(=O)(=O)c3ccc(C(=O)NCCCN4CCCC(C)C4)cc32)c1 (stereo not drawn),"inconclusive: 35.5 µM [cytotoxic, single point]"
10,Cc1ccc(C(c2cccc(Br)c2)c2c(C)[nH]c3ccccc23)s1 (stereo not drawn),"inconclusive: 31.6 µM [cytotoxic, single point]"
11,O=c1c2ccccc2n2c(-c3ccc(Cl)cc3)nnc2n1CCc1ccccc1,"inconclusive: 31.6 µM [cytotoxic, single point]"
12,Cc1cccc(C)c1Nc1nn2c(=O)c3cc4c(cc3nc2s1)OCO4,"inconclusive: 0.316 µM [cytotoxic, partial curve, poor fit]"
13,Cc1cccc(NC(=O)CSc2ccc(-c3ccccn3)nn2)c1,"inconclusive: 3.98 µM [cytotoxic, single point]"
14,CCOC(=O)c1ccc(N2C(=O)c3n[nH]c(-c4ccco4)c3C2c2ccc(C)cc2)cc1 (stereo not drawn),"inconclusive: 15.8 µM [cytotoxic, single point]"
15,Nc1c(C(=O)Nc2ccc(OC(F)(F)F)cc2)sc2nc(-c3ccncc3)ccc12,"inconclusive: 22.4 µM [cytotoxic, single point]"
16,Cn1nnnc1SCCCNCc1cc(Cl)ccc1OCc1ccc(F)cc1,"inconclusive: 35.5 µM [cytotoxic, single point]"
17,Cc1c(C(=O)Nc2ccc(C(=O)O)cc2)nnn1-c1ccccc1,"inconclusive: 12.6 µM [cytotoxic, partial curve]"
18,O=C(Nc1nc2n(n1)C(c1ccc(F)cc1)C=C(c1ccccc1)N2)c1ccco1 (stereo not drawn),"inconclusive: 1.58 µM [cytotoxic, partial curve]"
19,CCOc1ccc(-c2cc(OC(=O)c3ccc(OC)cc3)c3c(C)oc(C)c3c(=O)c2)cc1,"inconclusive: 0.316 µM [cytotoxic, partial curve]"
20,Cc1ccc(-c2nc3c4ccccc4[nH]c(=O)n3n2)cc1,"inconclusive: 7.94 µM [cytotoxic, partial curve]"
21,CCc1ccc(NC(=O)Cn2nc3c4ccccc4n(Cc4ccccc4)cc-3c2=O)cc1,inactive

row,Structure (SMILES),Potency
1,Cc1ccc(C)c(CN2CCC(CNC(=O)Nc3ccc(Br)cc3F)CC2)c1,"inconclusive: 31.6 µM [cytotoxic, single point]"
2,O=C(Nc1c(C(=O)Nc2ccc(F)cc2)oc2ccccc12)c1cc2ccccc2o1,"inconclusive: 7.94 µM [cytotoxic, partial curve]"
3,CCOC(=O)c1ccc2c(c1)N(C(CC)C(=O)Nc1ccccc1OC)C(=O)c1ccccc1S2 (stereo not drawn),"inconclusive: 0.178 µM [cytotoxic, full curve, poor fit]"
4,CCOC(=O)c1cccc(NC(=O)C2CCCN(S(=O)(=O)c3ccc4c(c3)oc(=O)n4C)C2)c1 (stereo not drawn),"inconclusive: 0.02 µM [cytotoxic, full curve, poor fit]"
5,CCOc1ccc(C2=NC(c3ccc(OC)cc3)=Nc3ccc(Cl)cc3N2)cc1,"inconclusive: 3.16 µM [cytotoxic, full curve]"
6,COCCCNC(=O)c1sc2nc3n(c(=O)c2c1C)CCC3,inactive
7,Cc1ccn2c(Nc3ccc4c(c3)OCO4)c(-c3ccc(N(C)C)cc3)nc2c1,"inconclusive: 6.31 µM [cytotoxic, partial curve]"
8,O=c1c2cn[nH]c2nc(SCc2cccc(Br)c2)n1-c1ccc(Cl)cc1,"inconclusive: 31.6 µM [cytotoxic, single point]"
9,CC1=C(C(=O)Nc2cccnc2)C(c2cccc(F)c2)n2nc(SCc3ccccc3)nc2N1 (stereo not drawn),"inconclusive: 0.0158 µM [cytotoxic, full curve, poor fit]"
10,Cc1cccc(NC(=O)Cn2nnc(C(=O)Nc3ccc(F)c(Cl)c3)c2N)c1,inactive
11,Cc1ccc(C(=O)Nc2cccc(O)c2)cc1S(=O)(=O)N1CCCCCC1,inactive
12,COc1ccc(C)cc1NC(=O)Cn1c(=O)cc(C)c2c(C)nn(C)c21,inactive
13,CN1CCN(C2=Cc3cc(Cl)ccc3Sc3cc(F)ccc32)CC1,"inconclusive: 31.6 µM [cytotoxic, single point]"
14,Cc1cc2c(cc1C)NC(CC(=O)Nc1ccccc1)C(=O)N2 (stereo not drawn),"inconclusive: 6.31 µM [cytotoxic, full curve]"
15,Cc1ccc(O)c(NC(=O)c2ccc(Br)c(S(=O)(=O)N3CCCCC3)c2)c1,"inconclusive: 25.1 µM [cytotoxic, single point]"
16,CCn1c(NCc2ccc(OC)cc2)nc2ccccc21,"inconclusive: 31.6 µM [cytotoxic, single point]"
17,Cc1nn(CC(=O)Nc2ccccc2C(F)(F)F)c(=O)c2cccn12,"inconclusive: 14.1 µM [cytotoxic, partial curve]"
18,COc1ccccc1CNC(=O)CCn1c(=O)c2ccccc2n(CC(=O)Nc2ccc(C)cc2Cl)c1=O,"inconclusive: 1 µM [cytotoxic, full curve]"
19,c1cc2c(cc1C1CCCCC1)c1c3n2CCCNC3CCC1 (stereo not drawn),"inconclusive: 35.5 µM [cytotoxic, single point]"
20,CCSc1nc2ccccc2n1Cc1ccccc1F,"inconclusive: 15.8 µM [cytotoxic, single point]"
21,Cc1cccc(C)c1NC(=O)CCCn1c(=O)c2cccn2c2ccccc21,"inconclusive: 1.58 µM [cytotoxic, partial curve]"

# Source: PubChem BioAssay AID904 (National Center for Advancing Translational Sciences (NCATS), 2007)
